Assay results taken from the supplement of paper PMC5998384.

Key:
HeLa Kyoto [1] = assay: solubility in G1/S (NP-40 vs SDS abundance) (log2 ratio); higher = more soluble; details: cell cycle stage: G1/S
HeLa Kyoto [2] = assay: melting temperature (median over replicates), in situ; higher = more thermally stable
HeLa Kyoto [3] = assay: thermal stability score vs G1/S (z-score of summed log2 fold changes over temperatures); higher = more thermally stable than in G1/S
HeLa Kyoto [4] = assay: solubility change mitosis vs G1/S (difference of NP-40 vs SDS log2 ratios) (log2 ratio difference); higher = more soluble in mitosis
[5] = cell cycle stage: early G1 (4.5 h after nocodazole release)
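Throughout, for melting temperature (median over replicates), in situ: HeLa Kyoto cells synchronized by double thymidine or nocodazole block, proteins quantified by TMT10plex mass spectrometry, three independent biological replicates.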
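Throughout, for solubility change mitosis vs G1/S (difference of NP-40 vs SDS log2 ratios): synchronized HeLa Kyoto cells (double thymidine block for G1/S, nocodazole release for mitosis), protein amounts in NP-40 versus SDS lysates quantified by mass spectrometry, three biological replicates.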
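Throughout, for solubility in G1/S (NP-40 vs SDS abundance): HeLa Kyoto cells arrested at G1/S by double thymidine block, proteins quantified by TMT10plex mass spectrometry in mild NP-40 versus SDS extracts, three biological replicates.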
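Throughout, for thermal stability score vs G1/S (z-score of summed log2 fold changes over temperatures): synchronized HeLa Kyoto cells, proteins quantified by TMT10plex mass spectrometry, three biological replicates, mitosis taken 0.5 h after nocodazole release, G1/S directly after double thymidine block.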

| Substance | solubility in G1/S (log2) (HeLa Kyoto [1]) | melting temperature (HeLa Kyoto [2]; cell cycle stage: G1/S) | melting temperature (HeLa Kyoto [2]; cell cycle stage: mitosis) | thermal stability score (HeLa Kyoto [3]; [5]) | thermal stability score (HeLa Kyoto [3]; cell cycle stage: mitosis) | solubility change mitosis (log2) (HeLa Kyoto [4]) |
| --- | --- | --- | --- | --- | --- | --- |
| LARP4 (sequence left out) | -1.1 | 49.6 °C | 49.9 °C | -0.987 | -1.66 | 0.656 |
| MGKDYYQTLGLARGASDEEIKRAYRRQALRYHPDKNKEPGAEEKFKEIAEAYDVLSDPRKREIFDRYGEEGLKGSGPSGGSGGGANGTSFSYTFHGDPHAMFAEFFGGRNPFDTFFGQRNGEEGMDIDDPFSGFPMGMGGFTNVNFGRSRSAQEPARKKQ[skipping about 150 residues]PERIPQTSRTVLEQVLPI [DNAJB1] | 0.361 | 48.7 °C | 49.3 °C | 0.967 | 0.315 | 0.00135 |
| NDUFB5 (sequence left out) | 0.0453 | 51.9 °C | 54.6 °C | 0.2 | -0.782 | -0.165 |
| PSMC5 (sequence left out) | 0.247 | 53.6 °C | 53.4 °C | 1.01 | 0.335 | -0.157 |
